This is one part of the list.
Tests used:
[1] = tested on: HSkMC (human skeletal muscle cells); assay: cytotoxicity call (relative viability < 0.9); settings: 10 µM
[2] = tested on: HepG2; assay: cytotoxicity call (relative viability < 0.9); settings: 10 µM
[3] = tested on: S. aureus RN4220; assay: growth inhibition call (relative growth <= 0.2); settings: 50 µM

Structure (SMILES)	cytotoxicity call [1]	cytotoxicity call [2]	growth inhibition call [3]
C[C@H](CO)N1C[C@H](C)[C@H](CN(C)C(=O)C2CCCCC2)Oc2cc(C#CC(C)(C)O)ccc2S1(=O)=O	inactive	inactive	inactive
COCC(=O)N1CC[C@]2(CC1)CN(Cc1cccc(c1)OC)[C@H](CO)c1c2c2ccc(cc2n1C)OC	inactive	inactive	inactive
CCCCOCCOCCOCc1cc2c(cc1CCC)OCO2	inactive	inactive	inactive
CN(C)CCCNC(=O)C[C@H]1CC[C@@H](NS(=O)(=O)c2ccccc2)[C@@H](CO)O1	inactive	inactive	inactive
C[C@H](CO)N1C[C@H](C)[C@@H](CN(C)Cc2ccc(Cl)c(Cl)c2)Oc2ccc(NC(=O)Nc3ccc(F)cc3)cc2CC1=O	active	active	inactive
CCS(=O)(=O)Nc1ccc2c(c1)C(=O)N(C)[C@H]1CC[C@@H](CC(=O)NCc3ccc(OC)cc3)O[C@H]1CO2	inactive	inactive	inactive
O=C1CNC(=O)N1CC1CCNCC1	inactive	inactive	inactive
C[C@@H]1CN([C@@H](C)CO)C(=O)c2cc(NC(=O)CCC(F)(F)F)ccc2O[C@@H]1CN(C)S(=O)(=O)c1cn(C)cn1	inactive	inactive	inactive
NCC1OC(OC2C(N)CC(N)C(OC3OC(CO)C(O)C(N)C3O)C2O)C(O)C(O)C1O.O=S(=O)(O)O (configuration not stated)	inactive	inactive	inactive
CCCN(C)C[C@@H]1OCCCC[C@@H](C)Oc2ccc(NC(=O)Nc3ccc(OC)cc3)cc2C(=O)N([C@H](C)CO)C[C@@H]1C	inactive	inactive	inactive
COc1ccc(NC(=O)N(C)C[C@@H]2OCCCC[C@H](C)Oc3ccc(NC(=O)Nc4c(C)noc4C)cc3C(=O)N([C@@H](C)CO)C[C@H]2C)cc1	inactive	inactive	inactive
C=CCNC(=O)[C@H]1[C@@H]2C(=O)O[C@@H](c3ccccc3)[C@@H](c3ccccc3)N2[C@@H](c2ccc(O)cc2)[C@]12C(=O)N(C(=O)OCCOC)c1ccc(C#CC3=CCCCC3)cc12	inactive	inactive	inactive
COc1cccc(CNC(=O)C[C@@H]2C=C[C@H](NC(=O)C3CCOCC3)[C@@H](CO)O2)c1	inactive	inactive	inactive
C[C@H](CO)N1C[C@H](C)[C@H](CN(C)Cc2ccc(Oc3ccccc3)cc2)Oc2ccc(NC(=O)Cc3ccccc3)cc2C1=O	inactive	inactive	inactive
COc1ccc2c3c(n(c2c1)C)[C@@H](CO)N(C[C@]13CCN(CC1)S(=O)(=O)C)C(=O)CN(C)C	inactive	inactive	inactive
C[C@H]1CN([C@@H](C)CO)C(=O)Cc2cc(NC(=O)CCC(F)(F)F)ccc2O[C@H]1CN(C)S(C)(=O)=O	inactive	inactive	inactive
C[C@H](CO)N1C[C@H](C)[C@@H](CN(C)CC2CCCCC2)Oc2c(NC(=O)c3nc4ccccc4s3)cccc2C1=O	inactive	inactive	inactive
C[C@H](CO)N1C[C@H](C)[C@@H](CN(C)C(=O)Nc2ccc(F)cc2)Oc2ccc(NC(=O)CCCCCC(=O)Nc3ccccc3N)cc2CC1=O	inactive	inactive	inactive
Cc1ccccc1S(=O)(=O)N1C[C@H](O)COC[C@@H]2O[C@H](CC(=O)NCCc3ccncc3)CC[C@H]21	inactive	inactive	inactive
O=C(CCCCCNC(=O)OCc1ccc(CO[C@@H]2C[C@H](c3ccc(Br)cc3)C=C(C(=O)N3CCN(Cc4ccc5c(c4)OCO5)CC3)O2)cc1)NO	inactive	inactive	inactive
C[C@H](CO)N1C[C@H](C)[C@@H](CN(C)Cc2ccc3c(c2)OCO3)OCCCC[C@H](C)Oc2ccc(NS(=O)(=O)c3ccc(F)cc3)cc2C1=O	inactive	inactive	inactive
COc1ccc(C#Cc2cnc3c(c2)C(=O)N([C@@H](C)CO)C[C@@H](C)[C@@H](CN(C)C(=O)CN(C)C)O3)cc1	inactive	inactive	inactive
COc1cccc(S(=O)(=O)Nc2ccc3c(c2)[C@H]2C[C@@H](CC(=O)NC4CCCCC4)O[C@H](CO)[C@H]2O3)c1	inactive	inactive	inactive
Cc1ccc(S(=O)(=O)N(C)C[C@@H]2Oc3ccc(NS(=O)(=O)c4c(C)noc4C)cc3C(=O)N([C@H](C)CO)C[C@@H]2C)cc1	inactive	inactive	inactive
C[C@H](CO)N1C[C@H](C)[C@@H](CN(C)C(=O)Nc2ccnc(N3CCOCC3)c2)OCc2cn(nn2)CCCC1=O	inactive	inactive	inactive
COCC#Cc1ccc2c(c1)O[C@@H](CN(C)C(=O)C1CCCCC1)[C@H](C)CN([C@@H](C)CO)S2(=O)=O	inactive	inactive	inactive
C[C@H]1CCCCO[C@H](CN(C)C(=O)C2CCCCC2)[C@@H](C)CN([C@@H](C)CO)C(=O)c2cc(NC(=O)Nc3ccc4c(c3)OCO4)ccc2O1	inactive	inactive	inactive

Structure (SMILES)	cytotoxicity call [1]	cytotoxicity call [2]	growth inhibition call [3]
CC(C)NC(=O)Nc1ccc2c(c1)C(=O)N([C@H](C)CO)C[C@H](C)[C@H](CN(C)Cc1ccc(C(=O)Nc3ccccc3N)cc1)OCCCC[C@@H](C)O2	inactive	inactive	inactive
C[C@H](CO)N1C[C@H](C)[C@H](CN(C)C(=O)Nc2ccc(C(F)(F)F)cc2)Oc2ccc(NC(=O)C3CCCCC3)cc2C1=O	inactive	inactive	inactive
C[C@@H]1CCCCO[C@@H](CN(C)C(=O)C2CCCCC2)[C@@H](C)CN([C@H](C)CO)C(=O)c2cc(NC(=O)Nc3ccccc3)ccc2O1	inactive	inactive	inactive
Cc1ccc(S(=O)(=O)Nc2ccc3c(c2)CC(=O)N([C@H](C)CO)C[C@H](C)[C@@H](CN(C)CC2CC2)O3)cc1	inactive	inactive	inactive
CCS(=O)(=O)Nc1ccc2c(c1)C(=O)N(C)[C@@H]1CC[C@@H](CC(=O)N[C@@H]3CCN(Cc4ccccc4)C3)O[C@H]1CO2	inactive	inactive	inactive
C[C@@H]1CN([C@H](C)CO)C(=O)c2cc(NC(=O)Cc3ccccc3)ccc2O[C@@H]1CN(C)Cc1ccc(C(F)(F)F)cc1	inactive	inactive	inactive
Cc1ccc(S(=O)(=O)N(C)C[C@@H]2OCCCC[C@H](C)Oc3ccc(NC(=O)Nc4ccc(F)cc4)cc3C(=O)N([C@H](C)CO)C[C@H]2C)cc1	inactive	inactive	inactive
C[C@H]1CN([C@@H](C)CO)C(=O)c2cc(NC(=O)Nc3ccccc3)ccc2O[C@@H]1CN(C)S(=O)(=O)c1cn(C)cn1	inactive	inactive	inactive
C[C@@H]1CN([C@H](C)CO)C(=O)c2cccc(NC(=O)Nc3ccc4c(c3)OCO4)c2O[C@H]1CN(C)Cc1ccc(-c2ccccc2)cc1	inactive	inactive	inactive
COc1cccc(NC(=O)N(C)C[C@H]2OCc3ccccc3-c3c(n(C)c4ccccc34)C(=O)N([C@H](C)CO)C[C@@H]2C)c1	inactive	inactive	inactive
CC(C)NC(=O)Nc1cccc2c1O[C@@H](CN(C)S(=O)(=O)c1cccs1)[C@@H](C)CN([C@@H](C)CO)C2=O	inactive	inactive	inactive
CCCNC(=O)C[C@@H]1CC[C@H]2[C@H](COc3ccc(NS(=O)(=O)c4ccccc4C)cc3C(=O)N2C)O1	inactive	inactive	inactive
C[C@H](CO)N1C[C@H](C)[C@@H](CN(C)Cc2ccc(-c3ccccc3)cc2)Oc2c(NC(=O)Nc3cccc4ccccc34)cccc2C1=O	inactive	inactive	inactive
Cc1noc(C)c1S(=O)(=O)N(C)C[C@@H]1Oc2ccc(NS(=O)(=O)c3ccc(Cl)cc3)cc2CC(=O)N([C@@H](C)CO)C[C@H]1C	inactive	inactive	inactive
O=c1ccc2cc3ccoc3cc2o1	inactive	inactive	inactive
C[C@H](NC(=O)C(C)(C)Oc1ccc(C(F)(F)F)cn1)[C@@H](Cc1ccc(Cl)cc1)c1cccc(C#N)c1	inactive	inactive	inactive
COc1ccc(NC(=O)N(C)C[C@@H]2OCCCC[C@@H](C)Oc3ccc(NS(=O)(=O)c4ccccc4)cc3C(=O)N([C@@H](C)CO)C[C@@H]2C)cc1	inactive	inactive	inactive
O=C1CCC(=O)N1c1nccs1	inactive	active	inactive
C[C@@H]1CN([C@H](C)CO)C(=O)c2cc(NC(=O)Cc3ccccc3)ccc2O[C@@H](C)CCCCO[C@H]1CN(C)C(=O)Nc1cccc2ccccc12	inactive	inactive	inactive
C[C@@H]1CCCCO[C@H](CN(C)C(=O)Nc2cccc3ccccc23)[C@@H](C)CN([C@H](C)CO)C(=O)c2cc(NC(=O)Nc3ccc(C(F)(F)F)cc3)ccc2O1	inactive	inactive	inactive
C[C@H]1CN([C@@H](C)CO)C(=O)Cc2cc(NC(=O)CCCN(C)C)ccc2O[C@H]1CN(C)S(=O)(=O)c1ccccc1	inactive	inactive	inactive
CC(C)(C)OC(=O)N1CC(=O)C1	inactive	inactive	inactive
Cc1cc(=O)c(C(=O)N[C@@H](C(=O)N[C@@H]2C(=O)N3C(C(=O)O)=C(CSc4nnnn4C)CS[C@H]23)c2ccc(O)cc2)c[nH]1	inactive	inactive	active
NC[C@H](O)c1ccc(O)c(O)c1	inactive	active	inactive
C[C@@H]1CN([C@@H](C)CO)C(=O)c2cc(NC(=O)CCC(F)(F)F)ccc2O[C@@H](C)CCCCO[C@@H]1CN(C)C(=O)C1CCCCC1	inactive	inactive	inactive
O=C(O)c1cc(=O)[nH]c(=O)[nH]1	inactive	inactive	inactive
Cc1noc(C)c1NC(=O)N(C)C[C@@H]1OCCCC[C@H](C)Oc2ccc(NC(=O)Cc3ccccc3)cc2C(=O)N([C@H](C)CO)C[C@H]1C	inactive	inactive	inactive
